# Data: the supplement of paper PMC11417369
# ± gives the standard deviation of the averaged measurements. The list shows a part of the results.
# System: PfAP2-G AP2 domain (GST-tagged)
# Experiment: gcPBM binding intensity (ln(normalized median fluorescence intensity)); higher = stronger DNA binding
# Summary of the method: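 GST-tagged P. falciparum DNA-binding domains produced in E. coli were incubated for 1 h on an Agilent 4 × 180k array of primer-extended double-stranded 36-bp intergenic genomic probes with negative controls. Binding intensity is the highest Masliner-normalised natural-log median intensity across replicate spots of either probe orientation, with bound protein detected by Alexa488 anti-GST antibody at 488 nm.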
row,Sequence,gcPBM binding intensity (ln)
1,AATAAAAAAATAGAAACACACATTAAAAAAAATAAA [CACACA_site1333],9.925 ± 0.021
2,TTTTATAATATTTAAAGTACATTCTAAAAATATAAT [XGTACX_site8033],11 ± 0.76
3,TTAGCCATTAATTCTCTACACACCTTTATGTTATTT [CACACA_site9212],9.9 ± 0.18
4,CCCCCCCACGGACACACACACATACATACCACATAT [CACACA_site5303],11.7 ± 0.75
5,TACATATAATATATTGCACACGTCAGAATAATATAG [CACACA_site1744],10.1 ± 0.15
6,TAATAGAATATGATGGTGCAGCAGTCTTATTTTTCA,9.825 ± 0.049
7,TTTCTTTCTTCACATATATATATATATATATTTATA [TGCATGCA_negctrl_site341],10 ± 0.057
8,ATTTTTTTTTTTTTTTTTTTTTTTTAGATTAAGAAA [CACACA_negctrl_site1272],9.66 ± 0.16
9,AAATAAAATAAAATAAAATAAAATTCTTTGATACCT [TGCATGCA_negctrl_site604],9.54 ± 0.2
10,TATAATTATTTTTTTCTAAATATTATAAGGTATTCA [GTGCAC_negctrl_site205],9.87 ± 0.31
11,TAAAAATGTGTATGTACACACTTTATTTTTAATACA [CACACA_site7235],11.6 ± 0.99
12,TATTCATATTTAAAGGTGCAATATTTATTTTGTACA,10.2 ± 0.18
13,TATTCTAATTTTTAAACACACAAATATAAATAAGTA [CACACA_site3149],9.96 ± 0.23
14,CTATTTATTATATATACATGCATATATATATTAATA [TGCATGCA_site527],9.71 ± 0.19
15,AGATGATATATTATATATCCTTTTAATAAATGTAAT [CACACA_negctrl_site730],9.65 ± 0.071
16,ACATATAATATATATATATATATATATATATATAAT [GTGCAC_negctrl_site648],9.73 ± 0.26
17,TATATAAAAAATTCAATACACACCATATATAAATAT [CACACA_site3987],9.97 ± 0.014
18,TATTAAACGAAACACACACACACACCCATATATAAA [CACACA_site759],10.3 ± 0.3
19,AAAAAGAATGTGAACACACACATTGAATCTAATTTA [CACACA_site6711],9.86 ± 0.15
20,GATAATTATGGACACACACACACACCCACAACTAAA [CACACA_site8824],11.2 ± 0.76
21,AAAAAAAAAAAAAAGAGTACTTTTTTCTCATTACTA [XGTACX_site8353],11.3 ± 0.64
22,TATTCTTCAATTTAAAGTACAAAAATTACTATACTT [XGTACX_site6599],11 ± 0.77

row,Sequence,gcPBM binding intensity (ln)
1,AAAAAAAAAAAAATAGGTACGTAAATATTTCTTTAA [XGTACX_site6423],11 ± 0.46
2,TCTTTTAGTTTTATCCACATAATAAAAAGCAAAAAA [GTGCAC_negctrl_site368],10.1 ± 0.33
3,AATTAAAATATATATATACACACGTAATTATATATA [CACACA_site3819],9.78 ± 0.085
4,ATTGTGGCAATATATTGTACATGTAATATAAATATA [XGTACX_site5415],11 ± 0.64
5,TTTGTATAGTTGTAGGTGCATATCATTTTTAAATGT [GTGCAC_site9708],10.2 ± 0.18
6,TGTTAATAAAGGTGTACACAAAATAAAAAAAATTAT [CACACA_site4288],11.7 ± 0.92
7,AAGTATGCTTGCTACTTATTAAGTGGCAATATAATT [XGTACX_negctrl_site74],10.1 ± 0.25
8,TATAATTATATTTGGAGTACAAATTTTTTTTTTTTT [XGTACX_site7494],11.5 ± 0.9
9,AAAAAAAAAGGTAACGCATGCTTTTAGATTATATTA [TGCATGCA_site398],9.58 ± 0.23
10,GGACAAAAAAAAAAAATAAAATAAAAATAAATAAAT [XGTACX_negctrl_site106],9.92 ± 0.028
11,AGAACCATATATAAATGTACATGTTAATATGAATAA [XGTACX_site130],11 ± 0.48
12,AAAAATTCCAGACACACACACACATATAAATAAATA [CACACA_site1232],10.2 ± 0.43
13,AAATATATATGAAGATGTACATATATATATGTAAAT [XGTACX_site4039],11.1 ± 0.66
14,TAACACTTATAAAAAAGTACTGATGAAATAATACTA [XGTACX_site7305],11.1 ± 0.87
15,AAAAAAACAGTGAATGCACACATTTAAGATCCATAT [CACACA_site3148],9.97
16,TATATTCCCTTAATCACACATAAATAAAAAAAAATA [CACACA_site6094],10 ± 0.37
17,ATTTATTAAATAAAAAGTACAAAATAAGAAAGAAGA [XGTACX_site6935],11.3 ± 0.79
18,TTATATATATCTAATTGTACAATATTATGTTCATTA [XGTACX_site7479],10.9 ± 0.49
19,ATATATAATATAATATGTACATAAAATTTTAACATT [XGTACX_site5773],11.2 ± 0.67
20,AAAATAATAATAGGCACACATATATATATATATATA [CACACA_site2058],10.1 ± 0.33
21,TATTTCCTTTTTCTTGTTATTCATGAGAAAAAATGA [CACACA_negctrl_site482],10 ± 0.18
22,GAAATTTTTAATGTGGTGCACAGGAAATTTTTTCTT,10.5 ± 0.33
